Source: patent US8653242B2, “Therapeutic antibodies against flagellated Pseudomonas aeruginosa” (priority 2010, dated 2014)

Experiments:
[1] = tested on: P. Aeruginosa flagellin type A strain 27853; details: ELISA, LST-007 supernatant, LST-008 0.5 μg/ml
[2] = molecular target: P. aeruginosa flagellin type B (Pseudomonas aeruginosa, UniProt P72151); experiment: ELISA of LST-008 on recombinant flagellin type B; assay type: binding; details: 250 ng/well antigen
[3] = tested on: P. Aeruginosa strains harboring flagellin type B (Pa01, Ka01, Ka02, Ka03, Ka04, 25619, NCTC 10662); experiment: Whole-bacteria binding ELISA, flagellin type B strains; details: LST-007 supernatant, LST-008 0.5 μg/ml

Chain of UniProt P72151 (P72151 whole entry): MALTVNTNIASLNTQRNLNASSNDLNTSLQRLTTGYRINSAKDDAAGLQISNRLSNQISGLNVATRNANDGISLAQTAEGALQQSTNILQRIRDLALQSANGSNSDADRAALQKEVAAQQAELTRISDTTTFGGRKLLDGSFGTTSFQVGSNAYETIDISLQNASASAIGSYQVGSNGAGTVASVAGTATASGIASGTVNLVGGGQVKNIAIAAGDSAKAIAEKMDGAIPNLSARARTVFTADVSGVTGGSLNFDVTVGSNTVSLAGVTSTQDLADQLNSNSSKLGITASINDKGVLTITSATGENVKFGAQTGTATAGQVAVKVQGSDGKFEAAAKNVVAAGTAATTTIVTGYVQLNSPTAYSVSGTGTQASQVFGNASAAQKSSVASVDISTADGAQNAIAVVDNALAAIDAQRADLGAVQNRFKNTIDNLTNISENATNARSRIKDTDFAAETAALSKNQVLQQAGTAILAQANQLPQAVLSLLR

B1: LST-008: fully human recombinant mAb: VH and VL of LST-007 linked to human IgG1 constant domains; binds flagellin type B (antibody)
heavy: QVRLVQSGTEVKKPGASVRVSCKASGYTFSNYYMYWVRQAPGQGLEWMAMINPSGGSTRYAQKFQGRVTMTRDTSTSTVYMELSSLRSEDTAVYYCARADSGSYFGYWGQGTLVTVSS[human IgG1 constant region left out]
light: DIQLTQSPSFLSASVGDRVPITCRASQGISTHLAWYQQKPGKAPKLLIYAASTLQSGVPSRFSGSGSGTEFTLTISSLQPEDSATYYCQQLKSYPLTFGGGTKVEIKRTVAAPSVFIFPPSDEQLKSGTASVVCLLNNFYPREAKVQWKVDNALQSGNSQESVTEQDSKDSTYSLSSTLTLSKADYEKHKVYACEVTHQGLSSPVTKSFNRGEC
[1]
  binding to whole bacteria harboring flagellin type A: not flagellin type A
[2]
  EC50 of binding to recombinant flagellin type B: ~0.01 µg/mL
[3]
  binding to whole bacteria harboring flagellin type B: bound all strains known to harbor flagellin type B
